# Data as given in publication PMC4336329 (PLoS ONE, 2015).
# Out of some 310,000 compounds screened, about 14,000 (4.5%) showed an effect of 50% or more. The effect is printed as a negative number. The list shows a part of the results.
# Target: human ether-à-go-go-related gene (hERG) potassium channel (human, UniProt Q12809)
# Assay: primary screen, population patch clamp on CHO cells stably expressing hERG
# 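Further: peak tail current of the secondary pulse compared with the same well before compound.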
# Chain of human ether-à-go-go-related gene (hERG) potassium channel (Q12809 whole entry, looked up): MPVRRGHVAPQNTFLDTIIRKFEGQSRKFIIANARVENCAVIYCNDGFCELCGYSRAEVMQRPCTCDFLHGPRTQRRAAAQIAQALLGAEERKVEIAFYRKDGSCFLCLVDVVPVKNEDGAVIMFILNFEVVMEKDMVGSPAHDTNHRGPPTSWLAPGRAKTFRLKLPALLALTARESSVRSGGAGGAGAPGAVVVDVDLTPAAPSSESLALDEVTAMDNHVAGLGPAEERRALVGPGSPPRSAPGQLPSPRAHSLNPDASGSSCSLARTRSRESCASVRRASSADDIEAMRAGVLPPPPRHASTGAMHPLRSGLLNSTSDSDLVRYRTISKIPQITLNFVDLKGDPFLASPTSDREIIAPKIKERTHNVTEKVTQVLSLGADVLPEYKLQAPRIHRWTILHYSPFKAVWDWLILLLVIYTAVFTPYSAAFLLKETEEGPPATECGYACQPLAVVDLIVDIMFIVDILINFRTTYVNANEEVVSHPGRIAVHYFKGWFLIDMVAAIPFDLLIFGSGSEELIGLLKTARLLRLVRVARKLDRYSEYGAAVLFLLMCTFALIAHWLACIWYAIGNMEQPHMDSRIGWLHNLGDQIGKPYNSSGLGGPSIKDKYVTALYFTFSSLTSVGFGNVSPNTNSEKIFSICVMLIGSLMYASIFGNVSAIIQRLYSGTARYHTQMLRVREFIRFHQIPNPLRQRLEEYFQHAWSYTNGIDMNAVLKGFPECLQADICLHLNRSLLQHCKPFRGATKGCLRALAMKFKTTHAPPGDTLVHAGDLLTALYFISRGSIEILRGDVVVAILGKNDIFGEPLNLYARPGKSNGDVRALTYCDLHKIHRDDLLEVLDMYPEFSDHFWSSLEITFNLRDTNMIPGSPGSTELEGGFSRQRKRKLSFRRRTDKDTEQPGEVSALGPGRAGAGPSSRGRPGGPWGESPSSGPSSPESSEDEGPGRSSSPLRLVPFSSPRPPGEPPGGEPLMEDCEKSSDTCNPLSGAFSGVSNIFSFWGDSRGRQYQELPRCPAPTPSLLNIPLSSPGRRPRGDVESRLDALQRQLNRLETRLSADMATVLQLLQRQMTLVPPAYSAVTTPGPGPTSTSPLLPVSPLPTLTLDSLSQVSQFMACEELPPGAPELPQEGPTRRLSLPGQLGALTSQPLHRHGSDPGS
row,Structure (SMILES),"hERG current change (%, negative = inhibition) at 10uM"
1,COc1ccc(C)cc1S(=O)(=O)Nc1cc2c3c(c1)CC(=O)N3CCC2,-10.2%
2,Cc1cc(C)n(-c2nc3ccccc3nc2N2CCN(C(=O)c3ccc(F)cc3)CC2)n1,-20.6%
3,COC(=O)c1nn(-c2nc(-c3cccc(OC)c3)cc(C(F)(F)F)n2)cc1[N+](=O)[O-],9.02%
4,O=C(Cn1c(=O)oc2cc(S(=O)(=O)N3CCCC3)ccc21)N1CCN(C2CCCCC2)CC1,-7.45%
5,S=c1[nH]nc(-c2ccc(Br)cc2)n1-c1ccc(Br)cc1,12.2%
6,CC(=O)Nc1ccc(NC(=O)C(C)N(C)CC(=O)Nc2ccccc2Br)cc1 (stereo not drawn),8.29%
7,COc1cc(CNCc2cc(OC)c(OC)c(OC)c2)cc(OC)c1.O=C(O)C(=O)O,1.64%
8,O=C(Oc1ccc2ccc(O)cc2c1)C1CCCCC1,16.7%
9,CSc1nc(C)cc(-n2ccc(=O)[nH]c2=O)n1,-3.54%
10,Cc1cc(C)n2c(SCc3ccccc3Cl)nnc2n1,6.96%
11,Cc1cc(C)cc(N(CC(=O)NC2CCCCC2)C(=O)CCCC(=O)Nc2ccccn2)c1,3.04%
12,COc1ccc(N2CCN(C3CCCN(Cc4ccc(F)cc4Cl)C3)CC2)cc1 (stereo not drawn),-35.2%
13,Cc1c(Cl)c(=O)n2c(=O)c(Cl)c(C)n12,2.68%
14,CC(C)c1cccc(C(C)C)c1NC(=O)CNCC(O)c1ccccc1.O=C(O)C(=O)O (stereo not drawn),2.04%
15,Cn1c(SCC(=O)Nc2ccc(C(N)=O)cc2)nnc1-c1cccs1,23.2%
16,CC1CC2(O)c3no[n+]([O-])c3CCC2N1O (stereo not drawn),5.85%
17,CSc1ncc(CN2CCc3c([nH]c4ccccc34)C2C(C)(C)C)cn1 (stereo not drawn),8.9%
18,NNC(=S)Nc1c(F)cc(F)cc1Br,13.9%
19,O=C(C1COc2ccccc2O1)N1CCOCC1 (stereo not drawn),10.5%
20,COc1ccc(NCC(=O)N/N=C/c2ccc3c(c2)OCCO3)cc1,10.8%
21,Cc1ccc(S(=O)(=O)NCC(=O)N2CCOCCOCCOCCOCC2)cc1,29.1%
22,O=C(CCC(=O)N1CCOc2ccccc21)NCCc1ccccc1,-6%
23,COc1ccc(C(=O)Nc2cc(C)nn2-c2cccc(F)c2)cc1OC,5.04%

row,Structure (SMILES),"hERG current change (%, negative = inhibition) at 10uM"
1,Cc1cn(CCC(=O)Nc2ccccc2N2CCOCC2)c2ccccc12,-10.1%
2,CC1Oc2ccccc2N(CC(=O)Nc2ccc3c(c2)OCCO3)C1=O (stereo not drawn),-5.7%
3,COc1ccc2nc(NC(=O)CSc3nc(C)cc(=O)[nH]3)sc2c1,2.03%
4,CCC(=O)Nc1ccc(N2CCCCC2)c(C(=O)Nc2ccc(OC)cc2)c1,-3.8%
5,CN(CC(=O)Nc1ccc(F)cc1)C(=O)CCc1nc2ccccc2c(=O)[nH]1,2.83%
6,Cc1c(NCc2nc3ccccc3[nH]2)c(=O)n(-c2ccccc2)n1C.Cl,-10.9%
7,CS(=O)(=O)N1CCN(C2CCN(Cc3ccccc3)CC2)CC1,-1.48%
8,c1ccc(Oc2cnc3ccccc3n2)cc1,-12.3%
9,CCN(CC)c1nc(C(F)(F)F)nc2c1nnn2Cc1ccccc1,9.26%
10,O=C(NCc1ccc(F)cc1)c1ccc(CS(=O)(=O)Cc2ccc(F)cc2)o1,-15.5%
11,CN1CCC(N(C)S(=O)(=O)c2ccc(NC(=O)COc3ccc(F)cc3Cl)cc2)CC1,6.79%
12,COc1ccc(C(=O)c2coc(-c3ccccc3C(=O)O)c2C(=O)O)cc1,14.2%
13,O=c1ccc(S(=O)(=O)N2CCCC2)cn1Cc1ccc(F)cc1,-13.3%
14,O=C(Nc1ccccc1[N+](=O)[O-])c1cc(S(=O)(=O)N2CCOCC2)cs1,3.39%
15,COc1ccc(N(CC(=O)O)S(=O)(=O)c2ccccc2[N+](=O)[O-])c(OC)c1,7.07%
16,Cc1ccc(NC(=O)C(Cc2ccccc2)NC(=O)c2ccco2)cc1 (stereo not drawn),-3.13%
17,COc1ccc(OC)c(CN2CCC(Cc3ccccc3)CC2)c1.O=C(O)C(=O)O,-69.4%
18,CCc1ccc(NC(=O)CC2C(=O)NCCN2C(=S)Nc2ccccc2)cc1 (stereo not drawn),-10.8%
19,CCC(CC)C(=O)NCc1ccccc1OC,0.922%
20,CCNc1cc(Nc2c(C)n(C)n(-c3ccccc3)c2=O)c([N+](=O)[O-])c2nonc12,-3.92%
21,Cc1ccc(NC(=O)COC(=O)c2cccc(N3C(=O)c4ccccc4C3=O)c2)cc1,22.3%
22,CC(=O)c1cnc(N(C)C)s1,10%
23,O=C(Nc1ccc2nc3n(c(=O)c2c1)CCCCC3)C(=O)N1CCN(c2ccc(F)cc2)CC1,6.57%

row,Structure (SMILES),"hERG current change (%, negative = inhibition) at 10uM"
1,CCCOc1ccc(N2C(=O)CC(NCCNc3ccc(S(=O)(=O)CC)cc3)C2=O)cc1 (stereo not drawn),-59.9%
2,COc1ccc(CCNC(=O)COC(=O)c2ccc(Br)o2)cc1OC,5.06%
3,O=C(COc1c(Br)cc(Br)c2cccnc12)N1CCCCC1,-23.9%
4,OC1CCCN(C(=S)NCc2ccccc2)C1 (stereo not drawn),4.37%
5,Cc1ccc(S(=O)(=O)Cc2ccc([N+](=O)[O-])cc2)cc1,2.66%
6,Cc1[nH][nH]c(=O)c1C=NCc1cccs1,12.3%
7,O=C(COC(=O)CSCc1ccccc1)NCc1ccccc1,8.99%
8,CCOC(=O)Cn1c(CN2CCN(C(=O)c3ccco3)CC2)nc2c1c(=O)n(C)c(=O)n2C,-13.3%
9,Cc1cc(NC(=O)CSc2nc3ccccc3n2CC(=O)N2CCC(C)CC2)no1,1.55%
10,Cc1cccc(C)c1NC(=O)CSc1nnc(-c2ccncc2)n1Cc1ccco1,-29.2%
11,CC(C)c1ccc(NC(=S)N2CCN(Cc3ccccc3)CC2)cc1,8.64%
12,COc1ccc(/C=N/NC(=O)c2cccnc2)cc1COc1ccc([N+](=O)[O-])c(C)c1,-5.82%
13,COC(=O)Cn1c(C(O)c2ccccc2)nc2ccccc21 (stereo not drawn),20.8%
14,CCCc1cc(=O)oc2c(C)c(OCC(=O)NCc3ccccn3)ccc12,-8.82%
15,O=C(NC1CCCCCC1)C(=O)NC1CCCC1,20.8%
16,Nc1nnc(SCc2ccccc2F)s1,-24.9%
17,COc1ccccc1CNC(=O)c1cc(-c2ccccc2C)n(CC2CC(c3cccc([N+](=O)[O-])c3)=NO2)n1 (stereo not drawn),16.4%
18,O=C(CCC(=O)c1cccs1)Nc1ncccc1O,17.5%
19,O=C(CCc1ccccc1)N/N=C/c1cccc([N+](=O)[O-])c1,-12.6%
20,COc1ccc(C(=O)CN2C(=O)c3ccccc3S2(=O)=O)cc1,9.67%
21,O=C1CSC(=S)N1Cc1cccnc1,-2.25%
22,Cc1cc(NC(=O)c2ccc(Br)c([N+](=O)[O-])c2)no1,-6.04%
23,Cc1cc([N+](=O)[O-])nn1CC(=O)N1CCOCC1,-9.3%

row,Structure (SMILES),"hERG current change (%, negative = inhibition) at 10uM"
1,CC(C)(C)c1nnc(N/N=C/c2ccc(O)cc2)n(N)c1=O,-3.42%
2,COc1ccc(C(=O)CCC(=O)NC2=NCCS2)cc1,12.3%
3,O=C(O)CCCC(=O)N1CCN(c2ncccn2)CC1,22.8%
4,CCn1c(C)c(C(=O)O)c2cc(OC)c3ccccc3c21,1.93%
5,COc1c(-c2ccc(O)c(O)c2)oc2cc(O)cc(O)c2c1=O,-4.09%
6,C=CCOc1cccc(C2C(C(=O)c3cc4ccccc4o3)=C(O)C(=O)N2c2cc(C)on2)c1 (stereo not drawn),18.5%
7,CCCOC(=O)C1=C(C)NC2=C(C(=O)CCC2)C1c1cc(OC)ccc1OC (stereo not drawn),-2.76%
8,O=C(CCNC(=O)c1ccc(Br)cc1)Nc1cccc(S(=O)(=O)N2CCCCCC2)c1,-34.1%
9,COc1ccc(F)cc1CN1CCN(C(=O)CCC(=O)Nc2nnc(C(C)C)s2)CC1,-1.63%
10,CC1CCCCC12NC(=O)N(CC(=O)Nc1cccnc1Cl)C2=O (stereo not drawn),8.05%
11,COc1ccc(CNC(=S)NCc2ccc(F)cc2)cc1,-23.5%
12,CN(CC(=O)Nc1ccc(N2CCOCC2)cc1)C(=O)c1cn(-c2ccccc2)nc1-c1ccccc1,12.3%
13,Cc1cc(C(=O)Nc2ccccc2C(=O)O)c(C)o1,14.6%
14,CC(C)(C)C1CCc2c(sc3c2C(=O)NC(c2ccco2)N3)C1 (stereo not drawn),2.55%
15,CCCCCCC(=O)Nc1ccc(Br)cn1,-10.8%
16,COc1ccc(CCNC(=O)C(=O)NCC2OCCN2S(=O)(=O)c2ccc(OC)c(OC)c2)cc1 (stereo not drawn),-19.8%
17,O=C(Nc1cccc2ncccc12)c1cc(Br)ccc1Cl,1.08%
18,CC(=O)CSc1ncnc2sc3c(c12)CCCC3,5.89%
19,CCOP(=O)(CN(CC)C(=O)c1ccccc1Br)OCC,2.97%
20,COc1ccc(Br)cc1CN1CCN(c2ncccn2)CC1,-11.8%
21,NC(=O)CSc1nnc(-c2cccc(S(=O)(=O)N3CCCCC3)c2)o1,3.2%
